PubChem BioAssay AID504332 (National Center for Advancing Translational Sciences (NCATS), 2011)
Screen size: about 350,000 compounds; about 31,000 (8.9%) were called active. The shares of active, inactive and inconclusive entries below differ from those in the screen. The call rests on the fitted dose curve; in most records, active means well fitted inhibition curve with a large enough effect; inconclusive means small, poorly fitted or top-dose-only effect; inactive means no such curve, though single readings can be large or run the other way. Potencies beside an inconclusive call are fits to weak or partial responses and may not hold up.

What follows are compounds tested against Histone-lysine N-methyltransferase EHMT2 (Homo sapiens) (UniProt Q96KQ7) (assay: qHTS Assay for Inhibitors of Histone Lysine Methyltransferase G9a). Conditions: G9a H3K9 monomethylation, AlphaScreen, 2 h; activity, negative = inhibition: at 59 µM (top of the series) unless noted.
How it was run: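 Compounds were preincubated with 20 nM G9a for 15 min, after which biotinylated H3K9 peptide (500 nM) and SAM (20 uM) started a 2 h room-temperature reaction. Monomethylated product was quantified by antibody-based AlphaScreen chemiluminescence.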
Further: nearly all actives have a fitted effect of over 75% in size.
On the % scale 0 is the no-effect control and ±100 the full control effect; potency means the concentration at half of the fitted maximal effect; tags describe the fitted curve by direction and shape.

UniProt Q96KQ7, sequence (Q96KQ7 whole entry, looked up): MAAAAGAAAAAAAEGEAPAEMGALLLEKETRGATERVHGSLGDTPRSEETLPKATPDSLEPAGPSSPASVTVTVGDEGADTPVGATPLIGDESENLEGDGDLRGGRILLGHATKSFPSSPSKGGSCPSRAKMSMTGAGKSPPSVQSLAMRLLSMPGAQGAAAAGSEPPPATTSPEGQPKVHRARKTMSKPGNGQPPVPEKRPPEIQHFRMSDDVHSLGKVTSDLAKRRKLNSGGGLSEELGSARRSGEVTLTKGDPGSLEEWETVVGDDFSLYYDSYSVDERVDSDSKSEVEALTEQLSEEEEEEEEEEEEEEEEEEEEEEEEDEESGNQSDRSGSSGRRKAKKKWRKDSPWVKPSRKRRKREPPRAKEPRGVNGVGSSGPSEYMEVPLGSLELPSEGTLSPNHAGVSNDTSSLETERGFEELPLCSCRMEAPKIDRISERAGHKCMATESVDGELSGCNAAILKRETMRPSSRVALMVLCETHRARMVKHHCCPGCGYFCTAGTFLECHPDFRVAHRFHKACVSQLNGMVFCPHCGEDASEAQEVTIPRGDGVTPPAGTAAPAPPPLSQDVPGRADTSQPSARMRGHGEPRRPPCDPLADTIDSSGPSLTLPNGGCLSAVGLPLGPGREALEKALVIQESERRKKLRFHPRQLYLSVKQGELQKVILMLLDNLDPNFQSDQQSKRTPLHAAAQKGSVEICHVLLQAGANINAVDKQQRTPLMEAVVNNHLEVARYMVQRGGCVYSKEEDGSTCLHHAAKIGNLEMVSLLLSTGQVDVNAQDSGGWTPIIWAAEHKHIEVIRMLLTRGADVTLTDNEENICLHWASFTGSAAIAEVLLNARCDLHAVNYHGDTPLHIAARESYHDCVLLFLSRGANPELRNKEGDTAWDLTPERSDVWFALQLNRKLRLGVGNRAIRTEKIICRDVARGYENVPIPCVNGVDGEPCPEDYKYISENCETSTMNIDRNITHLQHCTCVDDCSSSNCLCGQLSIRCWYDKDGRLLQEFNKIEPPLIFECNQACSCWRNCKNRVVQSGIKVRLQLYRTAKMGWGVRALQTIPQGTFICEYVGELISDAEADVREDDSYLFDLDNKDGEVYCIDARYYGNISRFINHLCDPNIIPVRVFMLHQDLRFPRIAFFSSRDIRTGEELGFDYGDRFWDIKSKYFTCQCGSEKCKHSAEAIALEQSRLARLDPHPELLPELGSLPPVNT

Structure (SMILES)	Potency	activity, negative = inhibition
CN(C)CCN(C(=O)c1ccc2c(c1)CCCC2)c1nc2c(F)cccc2s1	active: 39.8 µM	
CCCCn1c(NC(C)=O)c(C#N)c2nc3ccccc3nc21	inconclusive: 1.41 µM [inhibitor, single point]	
CCN1C(=O)S/C(=C/c2c(OCc3ccc(C(=O)O)cc3)ccc3ccccc23)C1=O	active: 50.1 µM	
Cc1ccc(CN(C(=O)COc2ccc([N+](=O)[O-])cc2)C2CCS(=O)(=O)C2)o1 (centres undefined)	inconclusive: 70.8 µM [inhibitor, single point]	
O=C(COC(=O)c1cccnc1SCC(=O)NCc1ccccc1)NCc1ccccc1	inconclusive: 6.31 µM [inhibitor, single point]	
CC1(C)S[C@@H]2[C@H](NC(=O)[C@@H](NC(=O)N3CCNC3=O)c3ccccc3)C(=O)N2[C@H]1C(=O)O		inactive: 25.6% [at 21.5 µM]
COc1cnc(-c2ccccn2)nc1Sc1c(Cl)cccc1Cl		inactive: 5.79% [at 12.7 µM]
CCCCNC(=O)CSc1nc(CCC)nc2ccccc12		inactive: 54.1% [at 102 µM]
CCN(CC)S(=O)(=O)c1ccc(NC(=O)c2nc3nc(C)cc(C)n3n2)cc1	inconclusive: 0.316 µM [inhibitor, partial curve, poor fit]	
Cc1c(C(=O)Nc2ccccc2)csc1-c1ccccc1		inactive: 16.4% [at 102 µM]
N#Cc1nc(-c2ccco2)oc1N1CCN(c2cccc(Cl)c2)CC1	inconclusive: 2 µM [inhibitor, partial curve, poor fit]	
COC(=O)[C@@]1(Cc2ccc(F)cc2)[C@H]2c3cc(C(=O)N4CCCC4)n(CCc4ccccn4)c3C[C@H]2CN1C(=O)c1ccccc1	inconclusive: 50.1 µM [inhibitor, partial curve]	
Brc1ccc(C2NCCS2)cc1 (centres undefined)	inconclusive: 89.1 µM [inhibitor, single point]	
COc1ccc(NC(=O)Nc2nnc(N3CCCCCC3)s2)c(OC)c1	inconclusive: 35.5 µM [inhibitor, partial curve, poor fit]	
Fc1ccccc1CNc1cc(Cl)cc(Cl)c1	inconclusive: 3.98 µM [inhibitor, single point]	
Cc1ccc(CC(=O)Nc2nnc(-c3ccc(F)cc3)o2)c(C)c1		inactive: 16.7% [at 102 µM]
CC(=O)c1cccc(NC(=O)CC2Oc3ccc(C)cc3NC2=O)c1 (centres undefined)		inactive: 9.33% [at 102 µM]
O=C(Nc1ccccc1)/C(=C\c1ccco1)NC(=O)c1ccco1	inconclusive: 3.55 µM [inhibitor, single point]	
O=C1CCc2cc(NS(=O)(=O)c3ccc([N+](=O)[O-])cc3)cc3c2N1CC3	active: 44.7 µM	
Cc1occc1-c1nnc(SCC(=O)Nc2ccccc2)n1Cc1ccccc1	inconclusive: 89.1 µM [inhibitor, single point]	
O=C(O)c1cc(-c2ccc3c(c2)OCCO3)n[nH]1	inconclusive: 89.1 µM [inhibitor, single point]	
CC1CC(=O)N(CC(=O)NCc2ccc(F)cc2)c2ccccc2S1(=O)=O (centres undefined)		inactive: -5.52% [at 102 µM]

Structure (SMILES)	Potency	activity, negative = inhibition
COc1ccc(NC(=O)c2cccc(S(=O)(=O)N3CCOCC3)c2)cn1	inconclusive: 89.1 µM [inhibitor, single point]	
Cc1ccc(-n2[nH]c(C)c(/C=N/Nc3ccc([N+](=O)[O-])cc3[N+](=O)[O-])c2=O)cc1C	inconclusive: 5.01 µM [inhibitor, partial curve, poor fit]	
CC(C)c1ccc(N(CC(=O)N2CCN(Cc3ccccc3)CC2)S(C)(=O)=O)cc1		inactive: 14.4%
O=C(c1ccc2c(c1)N(Cc1ccc(F)cc1)C(=O)c1ccccc1S2(=O)=O)N1CCCCCC1		inactive: -28.7%
O=c1c(N2CCCCC2)coc2ccccc12	inconclusive: 1.41 µM [inhibitor, full curve, poor fit]	
NS(=O)(=O)c1ccc(NC(CNS(=O)(=O)c2ccccc2)c2ccccc2)cc1 (centres undefined)	inconclusive: 50.1 µM [inhibitor, partial curve, poor fit]	
Fc1ccc(Br)cc1C1C=C(c2ccc(Br)cc2)Nc2ncnn21 (centres undefined)		inactive: 23.2% [at 12.7 µM]
O=C(c1ccccc1)C(C(=O)N1CCCCC1)n1ccccc1=O (centres undefined)	inconclusive: 89.1 µM [inhibitor, single point]	
Cn1cc(CN2CCc3c([nH]c4ccccc34)C2C2CCCCC2)cn1 (centres undefined)	active: 44.7 µM	
CCOc1ccc(NC(=O)c2sc3nc(N4CCOCC4)c4c(c3c2N)CCCC4)cc1	inconclusive: 79.4 µM [inhibitor, partial curve, poor fit]	
Cc1cc2ccccc2nc1SCC(=O)N1CCCC1	inconclusive: 79.4 µM [inhibitor, single point]	
COc1ccccc1N1CCN(C(=O)c2ccc(Cl)c(S(=O)(=O)N3CCOCC3)c2)CC1	inconclusive: 79.4 µM [inhibitor, single point]	
N#Cc1c(N)sc2c1CCN(C(=O)OCc1ccccc1)C2	inconclusive: 3.16 µM [inhibitor, partial curve, poor fit]	
Brc1cccc(/C=N/Nc2nn[nH]n2)c1	active: 50.1 µM	
Cc1ccc(CN2CCN(CCCc3ccccc3)CC2CCO)cc1 (centres undefined)	inconclusive: 39.8 µM [inhibitor, single point]	
Cn1c(=O)[nH]c(=O)c2c1nc(NCCCn1ccnc1)n2CCOc1ccccc1	inconclusive: 79.4 µM [inhibitor, partial curve, poor fit]	
CCc1cccc(NC(=O)c2c(N3CCCC3=O)c3cc(C)ccc3n2C)c1		inactive: -32.5%
CCN1c2ccccc2NC2C1C(C(C)=O)C(=O)N2c1ccc(Cl)cc1 (centres undefined)	active: 44.7 µM	
CC(=O)Nc1ccccc1-c1nc2ccccc2n(CC(=O)Nc2ccc(C)c(Cl)c2)c1=O		inactive: -8.58%
COC(=O)c1ccc(/C=C/c2nc3ccccc3c(=O)[nH]2)cc1	inconclusive: 89.1 µM [inhibitor, single point]	
COc1ccc(OC)c(CCNC(=O)CC2Oc3ccccc3NC2=O)c1 (centres undefined)	inconclusive: 89.1 µM [inhibitor, single point]	
CCCc1nnc(SCC(=O)O)n1/N=C/c1ccc2c(c1)OCO2	inconclusive: 35.5 µM [inhibitor, single point]	
